Results: PubChem BioAssay AID485344 (National Center for Advancing Translational Sciences (NCATS), 2010)
Screen size: about 340,000 compounds; about 6,900 (2%) were called active. Cut-off read from the data, not from the text of the source: active = inhibition above about 30%; inactive = below that, where a call was filed. The list shows a part of the results, in another mix than the full data. Where no call is shown, the source filed none.

The molecules below were run against D(2) dopamine receptor (Homo sapiens) (UniProt P14416) (assay: HTS Assay for Allosteric Antagonists of the Human D2 Dopamine Receptor: Primary Screen for Antagonists). Settings: HEK293 TREx D2 cells, calcium flux, dopamine EC80; at 10 µM; stronger effect = higher value.
UniProt P14416, sequence (P14416 whole entry, looked up): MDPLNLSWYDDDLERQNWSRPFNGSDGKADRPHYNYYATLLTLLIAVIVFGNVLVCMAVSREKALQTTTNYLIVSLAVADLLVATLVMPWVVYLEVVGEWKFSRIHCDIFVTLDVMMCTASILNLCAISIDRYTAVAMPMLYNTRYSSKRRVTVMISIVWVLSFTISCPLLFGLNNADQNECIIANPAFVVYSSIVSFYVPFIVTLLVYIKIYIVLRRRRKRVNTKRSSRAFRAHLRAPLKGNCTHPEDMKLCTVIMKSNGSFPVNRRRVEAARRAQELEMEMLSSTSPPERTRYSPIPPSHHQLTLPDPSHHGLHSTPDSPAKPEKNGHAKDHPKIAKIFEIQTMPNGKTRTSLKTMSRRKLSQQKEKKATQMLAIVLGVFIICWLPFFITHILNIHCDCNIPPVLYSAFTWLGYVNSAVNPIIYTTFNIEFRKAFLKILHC
Outline: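 Compounds are added to dye-loaded, induced HEK293 T-REx cells coupled to calcium release via D2; after a 3 min kinetic read an EC80 dopamine stimulus is given and fluorescence is recorded for 3 more min.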
Note: 0% is about no effect.

Structure (SMILES) | inhibition
Cc1cccc(-c2nc(SCc3cc(=O)c4c(C)cc(C)cc4[nH]3)n[nH]2)c1 | 4.28%
CCCn1c(=N)c(C(=O)NCC2CCCO2)cc2c(=O)n3cc(C)ccc3nc21 (stereo not given) | 1.1%
COCCN(CCOC)S(=O)(=O)c1ccc(C(=O)Nc2sc3c(c2C(N)=O)CCCC3)cc1 | -0.957%
COc1ccc(NC(=O)CSc2nc(C)cc(C)c2C(=O)Nc2ccccc2OC)cc1 | -22.2%
Cc1ccc(CN2CCN(CC3CC4C=CC3C4)CC2)cc1 (stereo not given) | active: 65.4%
COc1ccc(S(=O)(=O)NCC(c2ccco2)S(=O)(=O)c2cccs2)cc1F (stereo not given) | 18.1%
Cc1ccc(CCNC(=O)C2CCN(S(=O)(=O)c3ccc4c(ccn4C)c3)CC2)cc1 | 1.83%
Cc1ccc(-c2nc3c4c(-c5ccccc5)c(-c5ccccc5)oc4ncn3n2)cc1 | 14.7%
CCN1CCN(Cc2ccc(NC(=O)c3ccc(C)c(NC(=O)c4c[nH]c5cc(C(F)(F)F)ccc5c4=O)c3)cc2C(F)(F)F)CC1 | active: 36.1%
Cc1ccc(CNC(=O)CSc2nc3ccccc3nc2Cc2ccc(C)cc2)cc1 | -2.2%
CCOc1ccc(NC(=O)c2c(C)oc3nc(C)nc(N4CCOCC4)c23)cc1 | 1.28%
Cc1oc(-c2ccc(Cl)cc2)nc1Cn1c(=O)cc(C)c2c(C)nn(-c3ccccc3)c21 | 3.36%
COc1ccccc1CNC(=O)CCCCn1c(=O)c2ccccc2n(Cc2ccccc2F)c1=O | -9.58%
CC1=CC(=O)CC2C1(C)CCC(C)C2(C)CCC(C)CC(=O)O (stereo not given) | active: 32.3%
Cc1nn2cc(-c3ccc(OC(C)C)cc3)nc2s1 | -4.73%
O=C(CCSCc1cccc(Cl)c1)NCCc1ccc(Cl)cc1 | -18.1%
O=C(c1ccccc1)N1CCc2cc(CNS(=O)(=O)c3ccc(Cl)s3)ccc21 | 1.94%
CSc1ccc(/C=N/n2c(C)nnc2C)cc1 | active: 35.3%
COc1ccc(-n2c(SCC(=O)NCc3ccc(F)cc3)nc3c([nH]c4ccccc43)c2=O)cc1 | 6.16%
COc1ccc(NC(=O)c2cnc(N3CCCC3)nc2)cc1OC | -16.2%
CCCC1=Nc2cc(C(=O)N3CCC(C(=O)OCC)CC3)ccc2Sc2ccccc21 | -8.98%
Cc1cccc(NC(=O)C2CCCN2S(=O)(=O)c2ccc3c(c2)n(C)c(=O)c(=O)n3C)c1 (stereo not given) | 9.83%
Cc1cc(C)c2oc(-c3cccc(NC(=O)c4ccc(-c5cccc([N+](=O)[O-])c5)o4)c3)nc2c1 | 0.461%
O=C(NCc1cccc(F)c1)c1ccccc1NC(=O)c1nsc2ccccc12 | 4.07%

Structure (SMILES) | inhibition
COc1ccccc1C(=O)N(c1ccc(C)cc1)S(=O)(=O)c1ccc(Cl)cc1 | 4.94%
CCC(=O)N1c2ccccc2CC1C(=O)NCc1cc(Br)ccc1OC (stereo not given) | -5.08%
Cc1ccc2oc3c(c(=O)c2c1)C(c1ccc(O)cc1)N(c1nc(C)c(C)s1)C3=O (stereo not given) | 20.2%
CCC(=O)Nc1nnc(S(=O)(=O)N2c3ccccc3CC2C)s1 (stereo not given) | 6.19%
Cc1ccc(CNc2nc3ccccc3n3cnnc23)cc1 | -9.71%
Cc1csc2nc(COC(=O)c3ccc(NC(=O)C(C)Oc4ccccc4)cc3)cc(=O)n12 (stereo not given) | 2%
CCc1cccc(C)c1NS(=O)(=O)c1ccc2c(c1)CC(C)N2C(=O)C1CC1 (stereo not given) | 3.52%
COc1ccc(-c2noc(CSc3nc4ccccc4[nH]3)n2)cc1OC | 16.8%
COc1ccc(S(=O)(=O)NCCc2csc3nc(-c4ccccc4)nn23)cc1OC | -21.4%
Fc1cccc(CSc2ccc(-c3cccs3)nn2)c1 | 12.1%
CCN1C(=O)C(O)(c2c[nH]c3ccccc23)c2cc(Br)ccc21 (stereo not given) | 10%
Cc1cccc(Cn2c(=O)n(-c3ccccc3C)c(=O)c3c2c2cc(C)ccc2n3C)c1 | 0.936%
Cc1cc(NC(=O)C2C3C(=O)N(CC4CCCO4)C(C(=O)NCc4ccccc4)C34C=CC2(C)O4)no1 (stereo not given) | active: 33.5%
O=C(C1CCCN(S(=O)(=O)c2cccc3nsnc23)C1)N1CCN(c2cccc(Cl)c2)CC1 (stereo not given) | 12.1%
Cc1c(/C=C(\C#N)C(=O)NCc2ccccc2)cc(C#N)n1C | active: 36.5%
CCCN1CCc2nc(N3CCN(C)CC3)ncc2C1 | -2.61%
CCN(CC)c1nn2c(=O)c(C(=O)NCCc3cccc(C)c3)cnc2s1 | -4.06%
COc1ccc(C(=O)Nc2cccc(C(=O)OCc3cc(=O)n4c5c(sc4n3)CCCC5)c2)cc1 | -10.3%
COc1cccc(CSc2nc3n(n2)C(CC(C)C)C(C(=O)Nc2ccccc2C)=C(C)N3)c1 (stereo not given) | 14.2%
Cc1ccc(CCNC(=O)CCCc2nnc3n(C)c(=O)c4sccc4n23)cc1 | 2.92%
COc1ccccc1-n1c(=O)n(C)c2c(C(N)=O)nc(-c3cccc(OC)c3OC)nc21 | -7.3%
COc1ccc(CCNC(=O)CCc2c(C)nc3cc(-c4cccc(F)c4)nn3c2C)cc1OC | 13.9%
Cc1ccc(S(=O)(=O)NCCc2nnc3ccc(SCC(=O)Nc4ccc(F)cc4F)nn23)cc1 | -5.82%
CC(C)c1nn2c(=O)cc(COC(=O)c3ccc(NC(=O)c4cccs4)cc3)nc2s1 | -17.8%

Structure (SMILES) | inhibition
CCCOc1ccc(C(=O)N(Cc2ccco2)Cc2ccco2)cc1 | 4.3%
O=C(NCC(c1cccs1)S(=O)(=O)c1cccs1)c1c(F)cccc1F (stereo not given) | -19.8%
COc1ccc(OC(=O)c2nc(SCc3ccccc3C)ncc2Cl)cc1 | 5.33%
Cc1ccccc1OCC(=O)Nc1ccccc1OCc1cc(=O)n2ccccc2n1 | -14.1%
CCC(Sc1nc2n[nH]c(C)c2c(=N)n1-c1ccccc1Cl)C(=O)N(CC)CC (stereo not given) | -12.2%
CCN(CCCNC(=O)Cn1ncc2c([nH]c3ccc(C)cc32)c1=O)c1ccccc1 | -2.53%
N#Cc1cc2c(=O)n3ccccc3nc2n(-c2nnc(SCc3ccccc3Cl)s2)c1=O | 3.65%
Cc1cccc(NC(=O)c2cc3c(=O)n(Cc4cccnc4)ccc3nc2C)c1 | 16.8%
COc1ccc(NC(=O)CCn2cnc3onc(-c4ccc(F)cc4)c3c2=O)cc1OC | -6.15%
Cc1sc2ncnc(NCC(c3ccco3)N3CCCC3)c2c1C (stereo not given) | active: 32.1%
CC1Cn2c(C(=O)NCc3ccccc3Cl)cc3cccc(c32)S1 (stereo not given) | 0.34%
FC(F)(F)c1cccc(Nc2c3c(nc4ccc(Cl)cc24)CCC3)c1 | -6.78%
CC(NC(=O)c1ccc2c(c1)sc1nc(-c3ccc(F)cc3)cn12)C12CC3CC(CC(C3)C1)C2 (stereo not given) | 10.3%
COc1cc(OC)c(NC(=O)CCc2c(C)nc3c4c(C)cc(C)nc4nn3c2C)cc1Cl | 2.72%
CCCCCN1C(C(=O)c2ccccc2)=C(OC(=O)CC)c2ccccc2S1(=O)=O | -1.99%
COc1cc(NC(=O)C2CCN(S(=O)(=O)c3c(C)noc3/C=C/c3ccccc3F)CC2)cc(OC)c1OC | -21.8%
Cc1ccc(CCNC(=O)c2ccc(Nc3nc4ccccc4n4nnnc34)cc2)cc1 | -4.01%
CCOC(=O)c1c(C)oc2nc(C)nc(NCCCN3CCN(c4cc(C)ccc4C)CC3)c12 | 14.2%
CC(C)c1ccc(Nc2c(-c3ccccn3)nc3ccccn23)cc1 | 14.4%
COc1ccc(-c2nc(CSCC(=O)NCc3ccccc3Cl)c(C)o2)cc1OC | -15.8%
O=C(NCCc1ccc(Cl)cc1)C1CCN(S(=O)(=O)c2ccc3[nH]ccc3c2)CC1 | -1.73%
COc1ccc(CCNC(=O)C(=O)NCC(c2cccs2)S(=O)(=O)c2ccc(F)cc2)cc1 (stereo not given) | 5.18%
COc1ccc(-c2noc(CNC(=O)COc3cccc(C)c3C)n2)cc1 | -10.4%
COc1ccc(N(C(=O)Cn2nnc3ccccc32)C(C(=O)NCc2ccccc2)c2ccc(F)cc2)cc1 (stereo not given) | -4.02%

Structure (SMILES) | inhibition
Cn1nnc2c(NCc3c(F)cccc3F)ncnc21 | -8.22%
COc1ccc(CCNC(=O)c2cc(=O)c3cc(C)c(C)cc3o2)cc1OC | -14.4%
COc1ccc(N2CCN(Cc3nc4c(c(=O)[nH]c(=O)n4C)n3Cc3ccccc3F)CC2)cc1 | 12.1%
c1ccc(CN2CCC(Nc3nc(-c4cccnc4)nc4ccccc34)CC2)cc1 | active: 49.4%
CCc1ccc(C(=O)CC2(O)C(=O)N(CCc3ccccc3)c3ccc(Cl)cc32)cc1 (stereo not given) | -1.5%
Cn1c(=O)c2c(nc(SCC(=O)Nc3ccc(F)c(F)c3)n2Cc2ccccc2F)n(C)c1=O | -12.4%
CNC(=O)C1CCC(Cn2c(=O)c3sccc3n(CC(=O)N3CCC(C)CC3)c2=O)CC1 (stereo not given) | -0.866%
Cc1ccc(-n2ncc(C(=O)NCc3ccco3)c2C2CCN(C(=O)OC(C)(C)C)CC2)cc1 | -5.68%
Cc1ccc2nc(Cl)c3cc(C(=O)N4CCCCC4)sc3c2c1 | -4.08%
Cn1c(=O)c2c(-c3ccc(Cl)cc3)n(CCc3ccccc3)cc2n(C)c1=O | -21.2%
COC(=O)c1cc(S(=O)(=O)NCC2CCN(Cc3cccc(F)c3)CC2)cn1C | -1.64%
Cc1cc(C)c(Cn2c(=O)n(CCCC(=O)NCc3ccc4c(c3)OCO4)c(=O)c3sccc32)c(C)c1 | -15%
Cc1cc(C)c(NC(=O)Cn2c(=O)n(Cc3ccc4c(c3)OCO4)c(=O)c3ccccc32)c(C)c1 | -4.01%
CCC1=Nc2cc(C(=O)NCc3ccccc3Cl)ccc2Sc2ccc(C)cc21 | 26.9%
COc1ccc(CCNC(=O)c2cc3sc(Cl)cc3n2C)cc1OC | active: 63%
COC(=O)c1cccc(Nc2c(-c3ccc(OC)cc3)nc3nc[nH]n23)c1 | 18.7%
CC(C)NS(=O)(=O)c1ccc(OCC(N)=O)c(Cl)c1 | active: 33.6%
Cc1ccc(C)c(NC(=O)Cn2nnc(C(=O)NCCc3ccccc3)c2N)c1 | 3.55%
CCOc1ccc(C(C)=O)cc1CN1C(=O)c2ccccc2S1(=O)=O | active: 34%
CCCc1nc2nc(C)c(NS(=O)(=O)c3ccc(F)cc3)c(=O)n2[nH]1 | 1.34%
Cc1cc(C(=O)N2CCN(c3ccc(F)cc3)CC2)c2c(C)nn(-c3cccc(Cl)c3C)c2n1 | -3.32%
CCc1ccc(S(=O)(=O)c2cnc3ccc(OC)cc3c2N2CCCC(C)C2)cc1 (stereo not given) | 11.4%
COc1cc(OC)c2c(C)c(CC(=O)NCCc3ccccc3OC)c(=O)oc2c1 | 7.65%
